# Test results published in PubChem BioAssay AID360 (National Center for Advancing Translational Sciences (NCATS), 2006).
# The whole screen tested about 48,000 compounds, of which about 550 (1.1%) were called active. Roughly 4% stayed inconclusive and do not appear here. Rule as the data show it: active = potency below about 15 µM; inconclusive = mostly about 16 µM to 33 µM; inactive = weaker than that. Some of the results follow.
# Biological target: Lysosomal acid glucosylceramidase (Homo sapiens) (UniProt P04062)
# Experiment: Glucocerebrosidase;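 also: the screen sought inhibitors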
# Settings: purified enzyme, resorufin glucoside fluorescence (screen aimed at inhibitors), 20 min
# Procedure, shortened: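 Compounds titrated against 0.2 nM normal enzyme, 30 uM resorufin beta-D-glucopyranoside substrate, citrate/phosphate buffer with taurocholate and tween-20, pH 5.9. Reaction ran 20 min at room temperature; fluorescence (Ex 548/Em 600) gave AC50.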
# Potency is read from the fitted curve at half-maximal effect.
# Chain of UniProt P04062 (P04062 whole entry, looked up): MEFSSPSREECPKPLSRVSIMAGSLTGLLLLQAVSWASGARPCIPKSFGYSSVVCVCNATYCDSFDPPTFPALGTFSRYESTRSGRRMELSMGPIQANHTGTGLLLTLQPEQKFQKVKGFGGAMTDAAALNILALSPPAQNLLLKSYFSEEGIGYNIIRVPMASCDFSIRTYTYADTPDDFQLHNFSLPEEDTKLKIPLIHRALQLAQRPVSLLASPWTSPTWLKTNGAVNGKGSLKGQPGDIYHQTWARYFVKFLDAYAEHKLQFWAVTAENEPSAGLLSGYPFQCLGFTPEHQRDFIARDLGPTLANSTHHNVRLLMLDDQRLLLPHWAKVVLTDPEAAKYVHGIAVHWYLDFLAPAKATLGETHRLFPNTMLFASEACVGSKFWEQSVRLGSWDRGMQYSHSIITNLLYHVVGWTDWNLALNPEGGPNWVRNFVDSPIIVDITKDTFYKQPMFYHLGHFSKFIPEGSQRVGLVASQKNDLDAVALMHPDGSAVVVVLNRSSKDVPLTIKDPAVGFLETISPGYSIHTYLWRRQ
row,Compound,Potency
1,COc1ccccc1NC(=O)CN(c1ccccc1F)S(C)(=O)=O,inactive: > 76.9 µM
2,Cc1cccc(N(CC(=O)NC2CCCC2)C(=O)CS(=O)CC(=O)Nc2ccc3c(c2)OCO3)c1 (stereo unspecified),inactive: > 76.9 µM
3,CC(C)CNC(=O)COC(=O)c1cc(S(=O)(=O)N2CCCCC2)ccc1N1CCOCC1,inactive: > 76.9 µM
4,COc1cc2c(cc1OC)CN(C(=O)c1cc(S(=O)(=O)N3CCOCC3)ccc1Cl)CC2,inactive: > 76.9 µM
5,CC1Cc2ccccc2N1S(=O)(=O)c1cccc(C(=O)NCCCO)c1 (stereo unspecified),inactive: > 76.9 µM
6,CCOc1ccc(C(=O)Nc2c(C(N)=O)oc3ccccc23)cc1,inactive
7,Cn1nc(-c2ccc(N3CCOCC3)c(NC(=O)c3ccccc3)c2)c2ccccc2c1=O,inactive: > 76.9 µM
8,COc1ccc2c(c1)CCc1c(C(=O)N3CCCCCC3)noc1-2,inactive: > 76.9 µM
9,CCOC(=O)c1sc(=S)n(CC)c1NC(=O)C1CC1,inactive: > 76.9 µM
10,COC(=O)c1cccnc1-n1c(=O)c2cccnc2n(Cc2ccc(Cl)cc2)c1=O,inactive: > 76.9 µM
11,O=C(c1ccncc1)N1C2C=CC(C2)C1(C(F)(F)F)C(F)(F)F (stereo unspecified),inactive: > 76.9 µM
12,Cn1cnnc1SCNC(=O)C(F)(F)F,inactive: > 76.9 µM
13,c1ccc(Cn2nnnc2C(c2ccncc2)N2CCOCC2)cc1 (stereo unspecified),inactive: > 76.9 µM
14,COC(=O)[C@H](CCSC)NC(=O)Nc1ccc(C)c(C)c1,inactive: > 76.9 µM
15,O=C(O)C1CCN(S(=O)(=O)N2CCOCC2)CC1,inactive: > 76.9 µM
16,NC(=O)NC(=O)CSc1cccc(C(F)(F)F)c1,inactive: > 76.9 µM
17,Cc1ccc(-c2cc(C(=O)NCC3CCCO3)no2)cc1 (stereo unspecified),inactive: > 76.9 µM
18,Fc1ccccc1CSc1nnc(-c2cccs2)o1,inactive: > 76.9 µM
19,Cc1ccc(-c2nnc(N3CCN(C(=O)c4ccco4)CC3)c3ccccc23)cc1,inactive: > 76.9 µM
20,CC(C)C(=O)NCCn1ccc2ccccc21,inactive: > 76.9 µM
21,CCN(CC)C(=O)C1=C(C)Nc2nnnn2C1c1cccnc1 (stereo unspecified),inactive: > 76.9 µM
22,CC(C)Cc1nc2oc3c(=O)[nH]cnc3c2c2c1CCC2,inactive: > 76.9 µM
23,CS(=O)(=O)c1nc(-c2ccco2)cc(C(F)(F)F)n1,inactive: > 76.9 µM

row,Compound,Potency
1,O=C(NC1CCCC1)C(c1ccncc1)N(Cc1cccs1)C(=O)c1csnn1 (stereo unspecified),inactive: > 76.9 µM
2,Cc1ccc(S(=O)(=O)NCC(=O)OCC(=O)Nc2ncc(Cl)cc2Cl)cc1,inactive: > 76.9 µM
3,CCCN1C(=O)C(O)(C/C(C)=N/O)c2ccccc21 (stereo unspecified),inactive: > 76.9 µM
4,COc1ccccc1-c1c(C#N)c(SCC(=O)N2CCCC2)nc(C)c1C(N)=O,inactive: > 76.9 µM
5,COc1ccc2nc(Nc3nc(C)c(C(C)=O)s3)sc2c1,inactive: > 76.9 µM
6,Cn1c(SCC(=O)N2CCc3ccccc32)nnc1C1CC1,inactive: > 76.9 µM
7,COc1cccc(CNC(=O)C2CCN(Cc3cnn(-c4ccccc4)c3-n3cccc3)CC2)c1,inactive: > 76.9 µM
8,Cc1cc(NC(=O)CSc2nc3c(c(=O)n2-c2ccc(Cl)cc2)SCC3)no1,active: 13.7 µM
9,NS(=O)(=O)c1ccc(CNC(=O)C2CCCCC2)cc1,inactive: > 76.9 µM
10,O=C(OCCn1cncn1)c1cc2ccccc2oc1=O,inactive: > 76.9 µM
11,CC(=O)Nc1nonc1NC(=O)CSc1nc2ccccc2o1,inactive: > 76.9 µM
12,CC(=O)Nc1nonc1NC(=O)CSc1ncn[nH]1,inactive: > 76.9 µM
13,Cc1nnc(SCCn2c(Br)nc3c2c(=O)n(C)c(=O)n3C)s1,inactive: > 76.9 µM
14,CCOC(=O)c1ccccc1NC(=O)COC(=O)c1ccc(C)c(S(=O)(=O)N2CCOCC2)c1,inactive: > 76.9 µM
15,COc1cccc(S(=O)(=O)Nc2ccc(C(=O)N3CCN(C(=O)c4ccco4)CC3)cc2)c1,inactive: > 15.4 µM
16,COc1ccc(S(=O)(=O)N2CCCC(C(=O)O)C2)cc1Cl (stereo unspecified),inactive: > 76.9 µM
17,CCOC(=O)C1C(=O)C(C(=O)OCC)C(c2cccnc2)NC1c1cccnc1 (stereo unspecified),inactive: > 76.9 µM
18,COc1ccc(CN(Cc2cc3cccc(C)c3[nH]c2=O)C(=O)N(C)C)cc1,inactive: > 76.9 µM
19,COc1cccc(CNC(=O)C2CCN(S(=O)(=O)N3CCCC3)CC2)c1,inactive: > 76.9 µM
20,CC1CN(c2nn3c(=O)c4ccccc4nc3c3ccccc23)CC(C)O1 (stereo unspecified),inactive: > 76.9 µM
21,O=C(NC1CCCCCCC1)C1CCN(c2nc3ccccc3o2)CC1,inactive: > 76.9 µM
22,COc1ccc(Cn2nnnc2C(c2cc3ccc(OC)cc3[nH]c2=O)N2CCCCCC2)cc1 (stereo unspecified),inactive: > 76.9 µM
23,CC(=O)Nc1c(C(=O)c2ccccc2)oc2ccccc12,inactive: > 76.9 µM

row,Compound,Potency
1,O=C(O)CCCC(=O)Nc1cccc2cccnc12,inactive: > 76.9 µM
2,C=CCNC(=O)CN1CCC(O)(c2ccc(F)cc2)CC1,inactive: > 76.9 µM
3,O=C(c1ccco1)N1CCN(/C(=N/S(=O)(=O)c2cccs2)c2ccccc2Cl)CC1,inactive: > 76.9 µM
4,C/C=C/Cn1c(SC)nc2c1c(=O)[nH]c(=O)n2C,inactive: > 76.9 µM
5,COc1ccc(-c2noc(CSc3nc4ccccc4c(=O)n3-c3ccccc3)n2)cc1,inactive: > 76.9 µM
6,COc1cc(C2C(C(=O)OC(C)C)=C(C)Nc3[nH]c(=O)[nH]c(=O)c32)ccc1O (stereo unspecified),inactive: > 76.9 µM
7,CCC(=O)N(Cc1cc2cc(OC)ccc2[nH]c1=O)c1ccccc1C,inactive: > 76.9 µM
8,CCc1ccc(-c2nc(CSCC(=O)N3CCN(c4ccccn4)CC3)c(C)o2)cc1,inactive: > 76.9 µM
9,Cc1ccc(SCc2[nH]nc3c2C(c2ccco2)C(C#N)=C(N)O3)cc1 (stereo unspecified),inactive: > 76.9 µM
10,O=C(Nc1cccc(Cl)c1N1CCCC1)c1cc2ccccc2o1,inactive: > 76.9 µM
11,CC(=O)Nc1ccc2nc(C3CCCCC3)[nH]c2c1,inactive: > 76.9 µM
12,CCC(=O)c1ccc(OCCSc2ncccn2)cc1,inactive: > 76.9 µM
13,CC(=O)c1c(O)cc(C)n(Nc2nc(C)cc(C)n2)c1=O,inactive: > 76.9 µM
14,CCOCC(=O)Nc1nnc(COCC)s1,inactive: > 76.9 µM
15,Cc1cc(C)n2ncc(C(=O)NCc3cccnc3)c2n1,inactive: > 76.9 µM
16,COc1ccccc1N1CCN(c2cc(N3CCCC3)nc(C)n2)CC1,inactive: > 76.9 µM
17,Nc1c(S(=O)(=O)c2cccs2)c2nc3ccccc3nc2n1Cc1cccs1,inactive: > 76.9 µM
18,Cc1cc(NC(=O)CSc2nc(C(C)C)nc3sc4c(c23)CCCC4)no1,inactive: > 76.9 µM
19,O=C(CCS(=O)(=O)c1cccc2nonc12)Nc1cccc2c1CCCC2,inactive: > 76.9 µM
20,CCOC(=O)c1cc(-c2ccncc2)nc2c1c(C)nn2C,inactive: > 76.9 µM
21,CCc1c(C(=O)Nc2ccc(OC)c(Cl)c2)[nH]c(C)c1C(C)=O,inactive: > 76.9 µM
22,O=C(Nc1ccc(Cl)cn1)c1cc(S(=O)(=O)N2CCCCC2)ccc1Cl,inactive: > 76.9 µM
23,CCc1nc(NC(C)C)c2oc3ccccc3c2n1,inactive

row,Compound,Potency
1,CCOC(=O)C(C)n1cnc2c(nnn2-c2ccc(C)cc2)c1=O (stereo unspecified),inactive: > 76.9 µM
2,O=C(O)CSCCn1cccn1,inactive: > 76.9 µM
3,CCOC(=O)c1ccc(N2Cc3ccccc3C2)cc1O,inactive: > 76.9 µM
4,Cc1noc(C)c1C(=O)OCC(=O)c1c(N)n(CC(C)C)c(=O)n(C)c1=O,inactive: > 76.9 µM
5,O=C(COC(=O)c1ccc(=O)n(Cc2ccccc2)n1)Nc1ccc2c(c1)OCCO2,inactive: > 76.9 µM
6,CCOC(=O)Nc1c(C)n(C)n(-c2ccccc2)c1=O,inactive: > 76.9 µM
7,Nc1c(C(=O)c2cccs2)oc2ccccc12,inactive: > 76.9 µM
8,CCOC(=O)CCC(=O)Nc1ccc(S(=O)(=O)N2CCCC2)cc1,inactive: > 76.9 µM
9,Cc1ccc(C(=O)OCc2nnc(-c3ccccc3)o2)o1,inactive: > 76.9 µM
10,CC(=O)Nc1ccc2c(c1)C(=O)N(C1CCCCC1)C2=O,inactive: > 76.9 µM
11,CCOC(=O)C1CCCN(S(=O)(=O)c2cccs2)C1 (stereo unspecified),inactive: > 76.9 µM
12,O=C(Cc1cc(=O)oc2cc(O)ccc12)NCC1CCC(C(=O)O)CC1 (stereo unspecified),inactive: > 76.9 µM
13,COc1ccc(-n2nc3ccccc3n2)cc1,inactive: > 76.9 µM
14,CC(C)COC(=O)N1CC(O)CC1C(=O)O (stereo unspecified),inactive: > 76.9 µM
15,O=C(CN1CCN(Cc2ccccc2)CC1)c1ccc(Br)cc1,inactive: > 76.9 µM
16,Cc1cccc(OCC(=O)Nc2cc(C)c(C)cc2O)c1,inactive: > 76.9 µM
17,COc1cccc(C2=CC(c3ccc(OC)c(OC)c3OC)n3nnnc3N2)c1 (stereo unspecified),inactive: > 76.9 µM
18,COc1cc(C)c(Cl)c(C)c1S(=O)(=O)NCc1ccc2c(c1)OCO2,inactive: > 76.9 µM
19,CCOc1cc(S(=O)(=O)NCCc2cccc(C)c2)c(OCC)cc1-n1cnnn1,inactive: > 76.9 µM
20,CC(=O)NC(Cc1c[nH]c2ccccc12)C(=O)NCc1ccc2c(c1)OCO2 (stereo unspecified),inactive: > 76.9 µM
21,C=CCNC(=O)CN(c1ccc(F)cc1)S(=O)(=O)c1ccc(OC)cc1,inactive: > 76.9 µM
22,COCc1nc2ccccc2n1CCCOc1ccccc1,inactive: > 76.9 µM
